In all, about 110,000 compounds were measured (“z-score”: median about -0.1, highest 2% from about 2 on). The list shows a part of the results. Activity calls are given as the source filed them.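 Rule for the calls: active = z-score in the third read window above 3 or below -3; inactive = the rest.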 Residues, ends and D or L forms follow the SMILES beside them. *: point of attachment. Boc = CC(C)(C)OC(=O)*; Bn = c1ccc(C*)cc1
Molecular target: Metabotropic glutamate receptor 8 (Rattus norvegicus) (UniProt P70579)
Test: mGluR8 Gi/Go-coupled signaling modulation – cell-based, rat, thallium flux, HTS, primary screen (AID 488969)
Details: HEK293 rat mGluR8, GIRK (G protein-gated inwardly rectifying potassium channel) thallium flux, FluoZin2; at 10 µM; stronger effect = higher value; submaximal glutamate (EC20) added with thallium

UniProt P70579, sequence (P70579 whole entry, looked up): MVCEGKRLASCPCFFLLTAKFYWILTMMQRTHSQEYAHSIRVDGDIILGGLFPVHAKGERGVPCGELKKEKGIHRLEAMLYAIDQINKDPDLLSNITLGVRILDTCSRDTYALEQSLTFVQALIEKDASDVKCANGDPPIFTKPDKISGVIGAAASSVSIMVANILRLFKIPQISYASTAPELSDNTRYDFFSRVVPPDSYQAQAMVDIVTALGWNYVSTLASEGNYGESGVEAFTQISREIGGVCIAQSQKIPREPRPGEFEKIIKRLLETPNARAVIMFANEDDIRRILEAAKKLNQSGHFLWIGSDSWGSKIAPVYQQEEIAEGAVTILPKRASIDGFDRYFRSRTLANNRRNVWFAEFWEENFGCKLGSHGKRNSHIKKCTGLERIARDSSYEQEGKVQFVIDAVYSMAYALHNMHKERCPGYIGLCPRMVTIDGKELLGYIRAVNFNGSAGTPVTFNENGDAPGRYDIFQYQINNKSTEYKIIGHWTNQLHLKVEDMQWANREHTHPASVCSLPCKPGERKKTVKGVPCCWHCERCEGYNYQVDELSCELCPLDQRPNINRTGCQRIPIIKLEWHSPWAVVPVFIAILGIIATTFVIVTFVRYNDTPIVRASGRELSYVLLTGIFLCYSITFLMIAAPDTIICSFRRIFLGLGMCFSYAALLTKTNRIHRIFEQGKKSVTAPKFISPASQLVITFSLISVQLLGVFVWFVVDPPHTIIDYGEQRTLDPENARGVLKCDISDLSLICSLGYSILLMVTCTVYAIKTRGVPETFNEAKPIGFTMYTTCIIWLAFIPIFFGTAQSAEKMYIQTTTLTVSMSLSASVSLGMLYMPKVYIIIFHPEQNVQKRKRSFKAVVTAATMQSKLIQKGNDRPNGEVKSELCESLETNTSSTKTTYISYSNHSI

Row | Compound | z-score
1 | Cc1ccc(Oc2c(F)c(F)nc(N3CCCC3)c2F)cc1 | -0.0964
2 | S=c1[nH]c2ccc(Cl)cc2[nH]1 | 0.488
3 | Cc1cc(C)nc(Nc2n[nH]c(COc3cccc4ccccc34)n2)n1 | -0.325
4 | COC(=O)c1ccc2c(=O)n(NC(=O)C(c3ccccc3)c3ccccc3)c(=S)[nH]c2c1 | -0.337
5 | CCN(CC)CCNc1nc(-c2ccccc2)nnc1C(F)(F)F | 0.135
6 | COc1ccc(C)cc1NC(=O)C(=O)NNC(=O)c1ccco1 | active: 4.89
7 | CCOC(=O)/C(N)=C/c1ncc(C(F)(F)F)cc1Cl | 0.0511
8 | COc1ccc(N2C(=O)CC(N3CCN(c4ccc(C(=O)c5cccnc5)cc4)CC3)C2=O)cc1 (stereo not given) | -0.186
9 | CCOC(=O)C1CCN(C(=O)CNC(=O)OC(C)(C)C)CC1 | -0.318
10 | Cc1cccc(CSc2nc3c(cc2C#N)CCC3)c1 | 0.361
11 | CCOc1ccc2nc(NC(=O)CSc3ccccc3)sc2c1 | 0.162
12 | COc1c(C(=O)N2CCCC2)ccc2ccccc12 | 0.264
13 | Cc1ccnc(N/N=C/c2ccccc2)n1 | -0.125
14 | Cc1ccc(OCCCn2ccnc2)cc1C | -0.141
15 | CCC(=O)OCc1c(C(F)(F)F)nn(C)c1Oc1cccc(C(F)(F)F)c1 | -0.0999
16 | CC1=NC(C)(C)Cc2ccccc21 | 0.785
17 | OCCCNC(c1ccccc1)c1ccc(O)cc1 (stereo not given) | 0.266
18 | CC1(C)CC(c2csc(N)n2)CCO1 (stereo not given) | 0.945
19 | CC(=O)C1=C(C)NC(SCC(N)=O)=C(C#N)C1c1cccnc1 (stereo not given) | -0.192
20 | CC1SCC(=O)N(CC(=O)Nc2ccc3c(c2)OCO3)C1=O (stereo not given) | 0.433
21 | Cc1noc(C)c1C(=O)N1CC(C)OC(C)C1 (stereo not given) | -0.131
22 | COc1ccc(-c2nn(CC(=O)N3CCCCC3)c(=O)c3ccccc23)cc1 | -0.347

Row | Compound | z-score
23 | Cc1ccc(C(=O)Nc2ccc(Cc3ccncc3)cc2)cc1[N+](=O)[O-] | -0.494
24 | Cc1ccc2c(c1)C(O)(CC(=O)c1ccc3c(c1)OCO3)C(=O)N2 (stereo not given) | -0.665
25 | CC(C)(C)c1ccc(-c2nc(-c3ccncc3)no2)cc1 | -0.17
26 | Cc1nnc(NC(=O)c2ccc(C)c(S(=O)(=O)N3CCCCCC3)c2)s1 | -0.461
27 | O=C(NC1CCCCC1)c1cc(-c2ccco2)on1 | 0.0983
28 | Cc1cccc(N2C(=O)CC(Sc3nc(C)cc(C)n3)C2=O)c1 (stereo not given) | -0.715
29 | CCOc1cc(/C=N/NC(N)=O)cc(Br)c1OCC(=O)Nc1cccc2ccccc12 | 0.109
30 | CCOc1cccc(/C(O)=C2/C(=O)C(=O)N(CCOC)C2c2ccc(C)o2)c1 (stereo not given) | -0.479
31 | Cc1nn(Cc2ccccc2Cl)c(C)c1C(=O)NCc1ccco1 | -0.88
32 | O=C(COC(=O)CCc1ccc(S(=O)(=O)N2CCOCC2)cc1)NC1CCCC1 | -0.187
33 | COc1ccc(Cl)cc1NC(=O)C1CCCN(c2cc(C)nc3ncnn23)C1 (stereo not given) | -0.277
34 | Nc1nc(SCC(=O)NCc2ccc(F)cc2)[nH]c(=O)c1NC(=O)c1ccc(Cl)cc1 | -0.247
35 | O=C(c1cc(-c2ccccc2)nc2ccccc12)N1CCCc2ccccc21 | 0.0801
36 | O=C(NNC1=C(C(=O)C(F)(F)F)CCC1)c1ccc(Cl)cc1 | 0.28
37 | CCOC(=O)C1(C(=O)OCC)CC1c1ccccc1 (stereo not given) | -0.0513
38 | COCc1[nH]nc2c1C(c1ccc(OC)c(OC)c1)C(C#N)=C(N)O2 (stereo not given) | -0.328
39 | COc1ccc(C2CC(=O)c3cnc(Nc4cc(C)cc(C)c4)nc3C2)cc1 (stereo not given) | -0.184
40 | COc1ccc(/C=N/NC(=O)Cc2csc(Nc3cccc(C(F)(F)F)c3)n2)c(OC)c1 | -0.206
41 | O=C(/C=C/Nc1ccc(F)cc1)c1cccs1 | -0.329
42 | COc1ccc(NS(=O)(=O)c2ccc(SC)cc2)cc1 | 0.376
43 | CCCNC(=O)Cc1cc(=O)[nH]c(=O)[nH]1 | -0.407
44 | O=C(NCC1COc2ccccc2O1)c1ccc(NC(=O)C(c2ccccc2)c2ccccc2)cc1 (stereo not given) | -0.203

Row | Compound | z-score
45 | CCCCn1c(=O)[nH]c(=O)c2c1nc(COc1ccc(C#N)cc1)n2CCC | -1.09
46 | CC(=O)Nc1ccc(S(=O)(=O)NNC(=O)c2cccc3ccccc23)cc1 | -0.252
47 | O=C(O)CCS(=O)(=O)c1ccc(-c2ccccc2)cc1 | -0.097
48 | Cc1ccc(-n2c(SCC(=O)NCc3ccco3)nc3sc4c(c3c2=O)CC(C)(C)SC4)cc1 | 0.136
49 | COc1ccc(-n2cnnc2SCc2cnc(-c3ccccc3)s2)cc1 | -0.166
50 | Cn1nc(C(=O)OCCN2C(=O)c3ccccc3C2=O)c2ccccc2c1=O | -0.305
51 | CCCCNC(=O)CCn1c(=O)c2ccccc2n(Cc2ccc(F)cc2)c1=O | -0.407
52 | COc1ccc(C2CC(C(F)(F)F)n3nc(C(=O)O)cc3N2)cc1OC (stereo not given) | -0.555
53 | COC(=O)C1=NNC2(c3ccc(Cl)cc3)C(=O)N(c3ccccc3)C(=O)C12 (stereo not given) | 0.137
54 | COc1ccccc1NC(=O)/C(C#N)=C/c1c(C)nn(-c2ccc(F)cc2)c1Cl | -0.34
55 | COc1ccc(-c2c(C)n([O-])c3c([n+]2=O)CCCC3)c(OC)c1 | -0.0698
56 | NC(=O)c1cc(N2C(=O)C=CC2=O)ccc1Cl | 0.151
57 | O=C(OCc1cc2ccccc2[nH]c1=O)c1cccnc1 | 0.0651
58 | CCOC(=O)Cc1csc(NC(=O)CC)n1 | 1.77
59 | CC(=O)c1ccc(N2CCN(c3ncc(C(F)(F)F)cc3Cl)CC2)cc1 | -0.556
60 | CCOC(=O)c1cccc(NC(=O)CSc2nnc(-c3cccnc3)n2C)c1 | active: -3.23
61 | CCOC(=O)C1=C(C)OC(N)=C(C#N)C1c1ccc(OC)c(CSc2ccccn2)c1 (stereo not given) | -0.156
62 | CCCCn1c(CN2CCN(c3cccc(Cl)c3)CC2)nc2c1c(=O)[nH]c(=O)n2C | 1.11
63 | COC(=O)c1cn(CC(=O)NCc2ccco2)c2ccccc12 | -0.134
64 | COc1ccc(N2CSC3=C(C#N)C(c4cccs4)CC(=O)N3C2)cc1 (stereo not given) | 0.592
65 | COc1ccc(CCN(C(=O)C(F)(F)F)C(C(=O)NC2CCCC2)c2cccs2)cc1OC (stereo not given) | -0.0777
66 | O=C(O)c1cc2cc(Cl)ccc2oc1=O | -0.216

Row | Compound | z-score
67 | CCC(C(=O)NCc1ccc(F)cc1)N(Cc1ccco1)C(=O)c1snc(C(N)=O)c1N (stereo not given) | 0.681
68 | O=c1c2ccccc2c(-c2ccc(F)cc2)nn1-c1ccc(C(F)(F)F)cc1 | -0.239
69 | O=C(Nc1cc(S(=O)(=O)N2CCCC2)ccc1Cl)C1=COCCO1 | 0.333
70 | O=C(c1ccc(Cl)c([N+](=O)[O-])c1)N(c1ccccn1)c1ccccn1 | -0.225
71 | Cc1ccc(-c2c[n+](Cc3ccc(Cl)c(Cl)c3)c3n2CCC3)cc1 | -0.00717
72 | O=c1oc2cc(O)ccc2c2ccccc12 | -0.798
73 | COc1ccc(C2C=C(c3ccc(C)cc3)Nc3ncnn32)cc1 (stereo not given) | 0.648
74 | CC(C)(C)NC(=O)C12CC3CC(CC(Cl)(C3)C1)C2 | 0.0491
75 | CCc1nnc(NCn2nc(C)cc2C)s1 | -0.342
76 | Cc1cccc(Sc2c([N+](=O)[O-])ncn2C)n1 | -0.0664
77 | CC(C)n1c(N2CCN(C(=O)Nc3ccc(F)cc3F)CC2)nc2ccccc21 | -0.15
78 | CC(C)(C)c1ccc(OCC(=O)N2CCN(C=O)CC2)cc1 | -0.173
79 | CC1Cc2ccccc2N1C(=O)Cn1c(=O)cc(O)c2ccccc21 (stereo not given) | -0.102
80 | COc1ccc(N2CN=C3SCC(=O)N3C2)cc1 | -0.13
81 | NS(=O)(=O)c1ccc(NC(=S)NCc2ccccc2Cl)cc1 | 0.254
82 | CC(C)(C)c1ccc(OCCNC(=S)NC(=O)c2cccnc2)cc1 | 0.327
83 | CCCCn1nc(C(=O)N[C@@H](CCSC)c2nc3ccccc3[nH]2)c2ccccc2c1=O | -0.42
84 | CCOc1ccc(NC(=O)CC2C(=O)N(C)C(=S)N2Cc2ccco2)cc1 (stereo not given) | 0.0726
85 | CCOC(=O)c1cc2c(ccn2C)n1CC(=O)N1CCC(C)CC1 | 0.296
86 | O=C(CN1CCN(c2ncc(C(F)(F)F)cc2Cl)CC1)Nc1ccc2c(c1)OCO2 | -0.195
87 | CCC(=O)Nc1nnc(SCC(=O)c2ccc3c(c2)Cc2ccccc2-3)s1 | 0.387
88 | COc1ccc(OC)c(NC(=O)C2CC(=O)N(c3ccc(Br)cc3)C2)c1 (stereo not given) | active: 3.63

Row | Compound | z-score
89 | COCCN1CCc2c(C)nc3c(-c4ccc(OC)c(OC)c4)cnn3c21 | -0.678
90 | CCCCNC(=O)CCNS(=O)(=O)c1ccc(C)cc1 | 1.22
91 | CCOc1ccc2ncc(S(=O)(=O)c3ccc(C)cc3)c(N3CCC4(CC3)OCCO4)c2c1 | -0.355
92 | CC(C)CC(NC(=O)C(NC(=O)C(Cc1ccc(OCc2ccccc2)cc1)NC(=O)OC(C)(C)C)C(C)C)C(N)=O (stereo not drawn) (Boc-Tyr(Bn)-Val-Leu-NH2; configuration not given here) | -0.0426
93 | O=C(NCc1ccc(Cl)cc1)C(=O)NCC(c1ccco1)N1CCOCC1 (stereo not given) | -2.15
94 | CC(C)(C)c1ccc(C(=O)NCCC(=O)N2CCN(c3ncccn3)CC2)cc1 | 0.155
95 | COc1ccccc1/C=C/C=N/NC(=O)c1ccc(=O)n(C)c1 | -0.306
96 | CCCn1cnc2cc(NCc3ccccn3)ccc21 | -0.781
97 | CC1(C(=O)N2CC3(CC(c4cccc([N+](=O)[O-])c4)=NO3)C[C@H]2C(=O)NCC(N)=O)CC1 (stereo not given in full) | 0.0464
98 | CN(C)CC(=O)c1c[nH]c2ccccc12 | -0.101
99 | Brc1cccc(-c2nnc3n2CCC3)c1 | -1.42
100 | S=C(NCc1ccccn1)Nc1ccccc1Cl | -0.0105
101 | CSc1nc(=S)n(Cc2ccccc2)c(C)c1C(C)=O | -0.182
102 | CC1=C(C(=O)Nc2ccccc2C)C(c2ccc(C)o2)NC(=S)N1 (stereo not given) | 0.728
103 | CCOc1cc(C2C(C(=O)OC(C)C)=C(C)N=C3SCCC(=O)N32)ccc1OC(C)=O (stereo not given) | 0.00207
104 | CCn1cc([N+](=O)[O-])c(C(=O)N2CCCC2)n1 | -0.681
105 | CCn1nc(C)c(NS(=O)(=O)c2ccccc2)c1C | 0.21
106 | COc1ccc(-c2nc3c(Br)c(N)c(Br)cc3o2)cc1 | -0.19
107 | CCN(CC)S(=O)(=O)c1cc(NS(=O)(=O)c2cccc(Cl)c2)ccc1C | -0.898
108 | O=S(=O)(c1ccc2c(c1)OCCO2)N1CCN(Cc2ccc3c(c2)OCO3)CC1 | -0.0889
109 | Cc1cc(CSc2ccccc2)ccc1NC(=O)c1ccc(Br)cc1 | 0.213
110 | COC(=O)C1(C)Nc2ccccc2C(=O)N1c1ccccc1C (stereo not given) | 0.875
